# Experimental data reported in the supplement of paper PMC11417369.
# Some of the results follow.
# Test system: PF3D7_0420300 AP2 domain 1 (GST-tagged)
# Assay: gcPBM binding intensity (ln(normalized median fluorescence intensity)); higher = stronger DNA binding
# Procedure, shortened: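 After 1 h on an Agilent 4 × 180k array of primer-extended double-stranded 36-bp intergenic genomic probes and negative controls, bound GST-tagged P. falciparum DNA-binding domains were detected with Alexa488 anti-GST antibody and scanned at 488 nm. The domains had been expressed in E. coli, and binding took place in 1× PBS with 1% milk, 0.2 mg/ml BSA, 0.5% salmon testes DNA and 0.03% Triton X-100. Binding intensity is the highest Masliner-normalised natural-log median intensity across replicate spots of either probe orientation.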
row,Sequence,gcPBM binding intensity (ln)
1,TTTTTAAAAATATACACACACAGATATTATATATAT [CACACA_site786],9.75
2,AAAATATAATATAATGCACACATAAAAAAAAAAAAA [CACACA_site7989],9.53
3,ATATTGTGTTATAAATGTACACAATTTCCTTTCATA [XGTACX_site7481],9.33
4,AAAATATAATATAATGCACACATAAAAAAAAAATCA [CACACA_site7922],9.56
5,TATCTGTAAATGGACACACACATATATATATATATA [CACACA_site5926],9.57
6,TTTTAAAAAAAATAAAAAATAAACAATAATAAATAA [CACACA_negctrl_site721],9.16
7,TCTTTATTATTCGCCACACACATATATATATATATA [CACACA_site3077],9.77
8,TATATATATAAAAATACACACATGAATGAATATATA [CACACA_site419],9.61
9,TATACTCATAAATACACACACATATATATATATATA [CACACA_site5822],9.64
10,GGGGGCTTTTATAAAAGTACAAAATGAATAAAAATT [XGTACX_site2393],9.25
11,TATACATACCCACCCACACACAAAAAAAAAAAAAAA [CACACA_site4632],9.68
12,TTAATTATGTTTTGGTGTACAATAAATTGAATAGAT [XGTACX_site3306],9.16
13,CTACTTAATATTTGTACACACATATTTAACCTACTA [CACACA_site5725],9.62
14,ATGTTATAATTTAGTGTGCACATATTAAGAGGAACA,9.57
15,ATATATATTTATATATGTACATATTTTTGTGTATTT [XGTACX_site1183],9.55
16,AATAATAATAGAAACACACACACATTTTTAATAATA [CACACA_site1217],10.1
17,ATATATATATATATATGTACATAATAATTTTATAAA [XGTACX_site5105],9.08
18,CTTTTTTTTTTTTTTTGTCCGTATGAGGGACCTATA [XGTACX_site8839],8.94
19,TCCATTGTCACCTTTTGTACTTAAATTTTTTCCTCC [XGTACX_site1573],9.24
20,TGAGATAAATGTGGTAGTACATTTTTTTTATATATA [XGTACX_site1918],9.17
21,ATATCATCTTCTCTATCATTTTTTTTTTTTTTTTTT [CACACA_negctrl_site1220],9.37
22,ATAAAAAAATCAGACACACACACGTAAACACATACA [CACACA_site5529],10.1
23,CAAAAATTACCCTTGTGTACACATATATTATATGTA [XGTACX_site1124],9.47
24,TACAAAAGCTATAACATTCACCACATTATAAAAATA [CACACA_negctrl_site1112],9.26
25,TTTAAAAAAAAAAATACACACATAAAAGTTTTCAAA [CACACA_site6471],9.37
